Reference: PubChem BioAssay AID463173 (ICCB-Longwood Screening Facility, Harvard Medical School, 2010)
Among all 52,000 compounds or so, about 1,700 (3.3%) were called active. Rule as the data show it: active = survival mostly below about 52% (no sharp cut-off); inactive = mostly above about 56%. The list shows a part of the results.

test system: Wild type; assay: growth inhibition of S. aureus wild type versus tarO mutant, primary screen, teichoic acid synthesis inhibitors, RN4220, OD600 (AID 463173); details: S. aureus RN4220 wild type/DeltatarO growth, OD600, 18 h, hits give low values, screened at 18.75 µg/mL (by protocol)

Structure (SMILES) | survival
CCOc1ccccc1N(CC)C(=O)c1noc2c1COc1ccc(C)cc1-2 | inactive: 86%
CC1(C)Cc2ccccc2/C(=C/C(=O)N2CCCCCC2)N1 | inactive: 117%
CCn1cc(C(=O)NCCc2ccc(Cl)cc2)c(=O)c2cc(S(=O)(=O)N3CCC(C)CC3)ccc21 | inactive: 97%
O=C(NC1CCCCC1)c1ccc2c(c1)N(Cc1ccc(Cl)cc1)C(=O)c1ccccc1S2=O (centres undefined) | inactive: 82%
O=C(c1ccc(F)cc1)n1nc(-c2ccccc2)nc1NCc1ccco1 | active: 9%
Cc1ccc(C)c(Cn2c(=O)cc(C)c3c(C)nn(C)c32)c1 | inactive: 63%
COc1ccc(NC(=O)/C=C\C(=O)N(c2ccc(C(C)C)cc2)C(C(=O)NCc2ccco2)c2ccc(F)cc2)cc1 (centres undefined) | inactive: 59%
O=C(c1ccccc1)N(Cc1ccco1)Cc1cccs1 | inactive: 82%
Cc1cccc(C(=O)Nc2ccc(C(=O)OCc3cc(=O)n4nc(CC(C)C)sc4n3)cc2)c1 | inactive: 71%
CCn1c(C)c(C)c2cc(C(=O)NCc3cccc(C)c3)ccc21 | inactive: 74%
COc1ccc(OCC(=O)N2CCN(C(=O)c3cccc(OC)c3)CC2)cc1 | inactive: 88%
CCc1ccccc1NC(=O)CCS(=O)(=O)c1cccc2nonc12 | inactive: 78%
COc1cccc(CNC(=O)CCc2c(C)c3cc4c(C)coc4c(C)c3oc2=O)c1 | inactive: 75%
CC1CCCN(S(=O)(=O)c2ccc(NC(=O)CSc3nc4ccccc4o3)cc2)C1 (centres undefined) | inactive: 113%
Cc1ccc(-n2ncc3c(N4CCN(C)CC4)ncnc32)cc1C | inactive: 71%
COc1ccccc1NC(=O)c1sc2nc(C)c(C(=O)Nc3ccc(C)cc3C)c(-c3ccc(C)o3)c2c1N | inactive: 74%
CC(=O)Nc1ccccc1N1CCCCC1 | inactive: 90%
O=C(CN(C(=O)Cn1nnc(-c2cccs2)n1)C1CCCC1)NCc1ccccc1 | inactive: 112%
CCC(C)NC(=O)c1nc2c(nnn2Cc2ccccc2Cl)c(=O)[nH]1 (centres undefined) | inactive: 122%
Cc1cccc(NC(=O)Cc2csc(COc3cccc(C)c3)n2)c1 | inactive: 89%
Cc1cc(C)cc(NC(=O)CCc2c(C)nc3c4cccnc4nn3c2C)c1 | inactive: 93%
CCOC(=O)Cn1c(=O)n(C2CCCCC2)c2nc(-c3cccc(OC)c3)nc(C(N)=O)c21 | inactive: 81%
Cc1cccc(C(=O)NCC(=O)OCc2cc(=O)n3nc(C4CC4)sc3n2)c1 | inactive: 97%

Structure (SMILES) | survival
Cc1c2cnn(-c3ccccc3)c(=O)c2c(C)n1CC(=O)NCc1ccccc1 | inactive: 85%
Cc1cccc(-n2c(SCC(=O)c3ccccc3)nnc2-c2ccc(Br)cc2)c1 | inactive: 74%
Cc1ccc(Cl)cc1NS(=O)(=O)c1cc2c3c(c1)CC(=O)N3CCC2 | inactive: 79%
CCCNC(=O)N1CCN(S(=O)(=O)c2ccc3c(ccn3C)c2)CC1 | inactive: 77%
COc1cc2c(c(OC)c1)C(c1cc(OC)c(OC)c(OC)c1)CC(=O)N2 (centres undefined) | inactive: 77%
CCc1nn2c(=O)c(S(=O)(=O)Nc3cccc(F)c3)c(C)nc2s1 | inactive: 84%
CCOc1ccc(S(=O)(=O)Nc2ccc(-c3ccc(OC)nn3)cc2)cc1 | inactive: 105%
CCC(Sc1nc2nccnc2c(=O)n1Cc1ccc(C)cc1)C(=O)NC1CCCCC1 (centres undefined) | inactive: 65%
CC1(C)CC2CC(C)(CN2C(=O)c2cccs2)C1 (centres undefined) | inactive: 115%
COc1ccccc1N1CCN(C(=O)c2cc3ccc4ccc(C)[nH]c4c3n2)CC1 | inactive: 71%
CCOc1ccc(-c2cc3nc(C4CCN(C(=O)OC(C)(C)C)CC4)c(C(=O)Nc4ccc(C)cc4C)cn3n2)cc1 | inactive: 78%
O=C(CC1SC(=NC2CCCCC2)NC1=O)Nc1ccccc1 (centres undefined) | inactive: 96%
CCOC(=O)C1CCCN(S(=O)(=O)c2csc(C(N)=O)c2)C1 (centres undefined) | inactive: 87%
Cc1ccc(CNC(=O)Cn2c(=O)n(-c3cccc(Cl)c3)c(=O)c3sc4ccccc4c32)cc1 | inactive: 81%
O=C(c1ccc(CS(=O)c2ccccc2Cl)o1)N1CCN(c2cccc(Cl)c2)CC1 (centres undefined) | inactive: 44%
CC(CNC(=O)CCCn1c(=O)c2cccn2c2cccnc21)c1ccccc1 (centres undefined) | inactive: 96%
Cc1ccccc1Nc1c(-c2ccncc2)nc2ccc(Cl)cn12 | inactive: 128%
COc1cccc(CNC(=O)c2ccc(NC(=O)N3CC(C)Sc4ccccc43)cc2)c1 (centres undefined) | inactive: 80%
CC(C)(C)OC(=O)N1CCC(c2c(C(=O)N3CCN(C(=O)c4ccco4)CC3)cnn2-c2ccccc2)CC1 | inactive: 80%
Cc1cccc(CCNC(=O)C2CCCN(S(=O)(=O)c3ccc4c(c3)oc(=O)n4C)C2)c1 (centres undefined) | inactive: 93%
CCOc1cccc2sc(N(CCN(CC)CC)C(=O)c3ccco3)nc12 | inactive: 133%
COc1ccc(CCNC(=O)c2ccc(CNS(=O)(=O)c3ccccc3)cc2)cc1OC | inactive: 126%
COc1cc(NC(=O)c2ccc(NC(=O)N3CCSc4ncccc43)cc2)cc(OC)c1 | inactive: 71%

Structure (SMILES) | survival
Cc1ccc2nc(Cl)c3cc(C(=O)NC4CCCCCC4)sc3c2c1 | inactive: 119%
CCC1CN(C(=O)Nc2ccc(C(=O)O)cc2)c2cc(Cl)ccc2O1 (centres undefined) | inactive: 76%
O=C(CSc1cn(CC(=O)N2CCCC2)c2ccccc12)Nc1cc(C(F)(F)F)ccc1Cl | inactive: 88%
COc1cc(NC(=O)c2c(C)oc3ncnc(N4CCCCC4)c23)cc(OC)c1 | inactive: 121%
CCCS(=O)(=O)c1nc(S(=O)(=O)c2ccc(C)cc2)c(NCc2ccccc2)s1 | inactive: 132%
CN(Cc1ccccc1)C(=O)c1cn(C)c2ccc(S(=O)(=O)N(C)C3CCCCC3)cc2c1=O | inactive: 87%
Cc1ccc2c(c1)c(=O)c1ccccc1n2CCCC(=O)Nc1c(F)cccc1F | inactive: 69%
Cc1cccc(Cn2c(SCc3ccc(C(=O)NC4CCCCC4)cc3)nc3ccncc32)c1 | inactive: 90%
COc1ccc(NC(=O)c2c(C)oc3ccc(O)c(CN4CCN(Cc5ccccc5)CC4)c23)cc1 | inactive: 71%
CCC(=O)N1CCc2cc(S(=O)(=O)CCC(=O)NCc3cccc(OC)c3)ccc21 | inactive: 119%
COc1ccc(/C=C(/C#N)c2nc(-c3ccc(Br)cc3)cs2)cc1 | inactive: 64%
CCOC(=O)c1ccc(N2C(=O)c3n[nH]c(-c4cccs4)c3C2c2ccc(Cl)cc2Cl)cc1 (centres undefined) | inactive: 21%
Cc1cc(Br)ccc1NC(=O)C1CCN(S(=O)(=O)c2ccc(Br)s2)CC1 | inactive: 70%
CCOc1ccc(NC(=O)CCS(=O)(=O)c2ccc(Br)cc2)cc1 | inactive: 73%
Cc1ccc2c(c1)-c1c(cnn1CC(=O)Nc1ccccc1C#N)CO2 | inactive: 130%
Cc1ccc(C(=O)COC(=O)CCC(=O)Nc2ccc(Oc3cc(C)ccc3C(C)C)cc2)cc1 | inactive: 76%
CCc1ccc(C2=NN(CCC(=O)NCCc3ccc(Cl)cc3)C(=O)CC2)cc1 | inactive: 133%
CC(=O)N1CCCc2cc(S(=O)(=O)N3CCCC(C(=O)N4CCN(c5cc(C)ccc5C)CC4)C3)ccc21 (centres undefined) | inactive: 85%
Cc1ccc(OC(=O)CSc2nnc(CNC(=O)c3ccccc3)o2)cc1 | inactive: 87%
Cc1ccc(CCNC(=O)CCSCc2ccccc2Cl)cc1 | active: -3%
CC(C)n1nnnc1SCC(=O)c1ccc2c(c1)OCCO2 | inactive: 113%
CCCn1c2ccccc2c2cnn(CC(=O)NC(CCSC)C(=O)OC)c(=O)c21 (centres undefined) | inactive: 136%
O=C(NCC(c1ccccc1)c1ccccc1)c1nn(-c2ccccc2F)nc1CO | inactive: 122%

Structure (SMILES) | survival
CCOC(=O)c1nnc2c(-c3ccc(Cl)cc3)c(C)nn2c1C | inactive: 52%
Cc1c(C(=O)NCCN(C)C)sc2nc3n(c(=O)c12)CCC3 | inactive: 84%
Cc1cc(C)cc(NC(=O)Cn2c3ncccc3c(=O)n2-c2ccc(C)c(C)c2)c1 | inactive: 74%
O=C(NCc1ccccc1)c1ccc2c(c1)nc1n2CCCCC1 | inactive: 76%
CCC(NC(=O)c1ccccc1NC(=O)c1ccco1)C(=O)NC1CCCCC1 (centres undefined) | inactive: 104%
COC(=O)C1=C(C)N(Cc2cccnc2)C(=O)C1 | inactive: 105%
O=C(Cn1cnc2nc3c(cc2c1=O)CCCC3)N1CCN(c2ccccc2)CC1 | inactive: 69%
Cc1ccc(CSc2ncc(Cl)c(C(=O)Nc3sc4c(c3C(N)=O)CCCC4)n2)cc1 | inactive: 115%
CCn1c(SCC(=O)c2ccccc2)nnc1-c1ccco1 | inactive: 99%
Cc1cccc(N2CCN(Cc3nnc(-c4ccc5c(c4)OCO5)o3)CC2)c1C | inactive: 83%
O=C(C1CC1)N1c2ccccc2Sc2ccccc21 | inactive: 104%
CCc1nn2c(=O)cc(COc3ccc(/C=C(\C#N)C(=O)Nc4ccc(C)cc4)cc3)nc2s1 | inactive: 92%
Cc1ccc(-c2cc(C(F)(F)F)c(C#N)c(SCC(=O)O)n2)cc1 | inactive: 86%
O=C(Cn1c(=O)c2cccn2c2ccc(F)cc21)N1CCN(c2ccccc2)CC1 | inactive: 89%
CCc1ccc(NC(=O)Cn2c(=O)n(CC3CCCO3)c(=O)c3cc(OC)c(OC)cc32)cc1 (centres undefined) | inactive: 68%
Cc1ccccc1CNC(=O)C(=O)NCC(c1cccs1)S(=O)(=O)c1ccc(Cl)cc1 (centres undefined) | inactive: 74%
O=C(CN1C(=O)C2CCCCN2c2ccc(C(=O)N3CCCC3)cc21)NCc1cccc(F)c1 (centres undefined) | inactive: 65%
COc1ccc(NC(=O)Nc2ccccc2OCc2cc(=O)n3ccccc3n2)c(OC)c1 | inactive: 128%
CC(=O)N(c1nnc(-c2ccc(C)cc2)s1)C1CCCC1 | inactive: 107%
CCN(CC)c1ccc(NC(=O)CN2C(=O)c3cccnc3Sc3ccccc32)c(C)c1 | active: -4%
